Patent publication US20210127671A1, “HYPERSENSITIVE RESPONSE ELICITOR PEPTIDES AND USE THEREOF” (priority 2015, published 2021)
Part of at least one peptide drawing is inferred or uncertain, most often the ends. Marks after values point to notes of the source that are not given here. Peptide text beside a SMILES is read from it.

Assays:
[1] = system: Corn; experiment: Growth test, foliar spray, corn; type: in vivo; settings: for Growth (% difference) / Fresh mass (% difference): % increase over water-treated control
[2] = system: Nicotiana tabacum cultivar xanthi plants; settings: result in words; HR test of Example 1
[3] = system: tobacco mosaic virus (TMV); experiment: Induced resistance of tobacco to infection with tobacco mosaic virus; settings: % decline in TMV lesions vs UTC; for Effectiveness Covered (%): covered leaves (systemic response); for Effectiveness Uncovered (%): uncovered leaves (local response)
[4] = system: Corn; experiment: Peptide seed treatment, root and shoot growth, corn; type: in vivo; settings: 12-14 days; for Root (%): root growth index; for Shoot (%): shoot length
[5] = system: soy; experiment: Peptide seed treatment, root and shoot growth, soy; type: in vivo, soybean; settings: seed soak 5.0 μg/ml, 12-14 days
[6] = Rate 0.2, % increase over water-treated control

For `CC[C@H](C)[C@H](NC(=O)[C@H](CCCCN)NC(=O)[C@H](CC(C)C)NC(=O)[C@H](CC(C)C)NC(=O)[C@H](CCCCN)NC(=O)[C@H](CCC(N)=O)NC(=O)[C@H](CC(C)C)NC(=O)[C@@H](NC(=O)CNC(=O)[C@@H](NC(=O)[C@H](CC(C)C)NC(=O)[C@H](CCC(=O)O)NC(=O)[C@H](CCC(=O)O)NC(=O)[C@H](CCC(=O)O)NC(=O)[C@H](CCC(=O)O)NC(=O)[C@H](CCC(=O)O)NC(=O)[C@@H](N)CO)[C@@H](C)O)C(C)C)C(=O)N[C@@H](CC(C)C)C(=O)N[C@@H](CCC(=O)O)C(=O)N[C@@H](C)C(=O)N[C@@H](CC(C)C)C(=O)O` [Peptide P25-11] (H-SEEEEELTGVLQKLLKILEAL-OH; N-terminus and C-terminus assumed), the “Growth (% difference)” value ([1]; Rate 0.2, 14 days) was 4.1 % difference, the “Dry biomass (% difference)” value [1, 6] was 4.7 % difference and the “Fresh mass (% difference)” value ([1]; Rate 0.2, after 2-4 days without watering) was 1.6 % difference. For the same molecule, the “Growth (% difference)” value ([1]; Rate 5.0, 14 days) was 1.0 % difference, the “Dry biomass (% difference)” value ([1]; Rate 5.0, % increase over water-treated control) was 6.2 % difference and the “Fresh mass (% difference)” value ([1]; Rate 5, after 2-4 days without watering) was 10.9 % difference. The “elicitation of hypersensitive response (HR) in tobacco leaves” value (“elicitation of hypersensitive response” below) [2] was “elicited HR”, the “Effectiveness Covered (%)” value ([3]; 10 ug/ml spray) was 97* % and the “Effectiveness Uncovered (%)” value ([3]; 10 ug/ml spray) was 100* %.

In the case of `CC[C@H](C)[C@H](NC(=O)[C@H](CC(C)C)NC(=O)[C@H](CCCCN)NC(=O)[C@H](CC(C)C)NC(=O)[C@H](CC(C)C)NC(=O)[C@H](C)NC(=O)[C@H](CCCCN)NC(=O)[C@H](CC(C)C)NC(=O)[C@H](CCC(=O)O)NC(=O)[C@H](CCC(=O)O)NC(=O)[C@H](CCC(=O)O)NC(=O)[C@H](CCC(=O)O)NC(=O)[C@H](CCC(=O)O)NC(=O)[C@@H](N)CO)C(=O)N[C@@H](C)C(=O)N[C@@H](CCCNC(=N)N)C(=O)N[C@@H](CC(C)C)C(=O)N[C@@H](CC(C)C)C(=O)O` [Peptide P19-8] (H-SEEEEELKALLKLIARLL-OH; N-terminus and C-terminus assumed), the “Root (%)” value ([4]; seed soak 5.0 μg/ml) was 4.1%, the “Shoot (%)” value ([4]; seed soak 5.0 μg/ml) was −2.7% and the “elicitation of hypersensitive response” value [2] was “elicited HR”. For the same molecule, the “Effectiveness Covered (%)” value ([3]; 20 ug/ml spray) was 77* % and the “Effectiveness Uncovered (%)” value ([3]; 20 ug/ml spray) was 74* %.

For `CC[C@H](C)[C@H](NC(=O)[C@H](CC(N)=O)NC(=O)[C@H](CO)NC(=O)[C@H](CCC(N)=O)NC(=O)[C@H](CO)NC(=O)[C@H](CC(=O)O)NC(=O)[C@H](CC(N)=O)NC(=O)[C@@H]1CCCN1C(=O)[C@H](CCCCN)NC(=O)[C@H](CO)NC(=O)[C@H](C)NC(=O)[C@H](CC(=O)O)NC(=O)[C@H](CCC(N)=O)NC(=O)[C@@H]1CCCN1C(=O)[C@H](CC(N)=O)NC(=O)[C@H](CCC(N)=O)NC(=O)[C@@H](NC(=O)[C@@H](NC(=O)[C@H](CO)NC(=O)[C@H](CC(=O)O)NC(=O)[C@@H]1CCCN1C(=O)[C@@H](NC(=O)CNC(=O)[C@H](Cc1ccccc1)NC(=O)[C@@H](N)CC(N)=O)[C@@H](C)O)[C@@H](C)O)C(C)C)C(=O)N[C@@H](C)C(=O)N[C@@H](CCCCN)C(=O)N[C@@H](CC(C)C)C(=O)N[C@H](C(=O)N[C@@H](CO)C(=O)N[C@@H](C)C(=O)N[C@@H](CC(C)C)C(=O)N[C@H](C(=O)N[C@@H](CCSC)C(=O)N[C@@H](CO)C(=O)N[C@@H](CC(C)C)C(=O)N[C@@H](CC(C)C)C(=O)N[C@@H](CCC(N)=O)C(=O)N[C@@H](CCSC)C(=O)O)[C@@H](C)CC)[C@@H](C)CC` [Peptide P15a] (H-NFGTPDSTVQNPQDASKPNDSQSNIAKLISALIMSLLQM-OH; N-terminus and C-terminus assumed), the “Growth (% difference)” value ([1]; Rate 0.2, 14 days) was 6.0 % difference, the “Dry biomass (% difference)” value [1, 6] was 5.0 % difference and the “Root (%)” value ([4]; seed soak 0.2 μg/ml) was 14.2* %. For the same molecule, the “Shoot (%)” value ([4]; seed soak 0.2 μg/ml) was −4.5%, the “Effectiveness Covered (%)” value ([3]; 10 ug/ml spray) was 55% and the “Effectiveness Uncovered (%)” value ([3]; 10 ug/ml spray) was 88%.

In the case of `CC[C@H](C)[C@H](NC(=O)[C@H](CC(C)C)NC(=O)[C@H](CCC(N)=O)NC(=O)[C@@H](NC(=O)[C@H](CC(C)C)NC(=O)[C@H](CC(C)C)NC(=O)[C@H](CCC(N)=O)NC(=O)[C@H](CC(=O)O)NC(=O)[C@H](CC(C)C)NC(=O)[C@H](CCC(=O)O)NC(=O)[C@H](CCC(=O)O)NC(=O)[C@H](CCC(=O)O)NC(=O)[C@H](CCC(=O)O)NC(=O)[C@H](CCC(=O)O)NC(=O)[C@@H](N)CO)[C@@H](C)O)C(=O)N[C@@H](CCC(=O)O)C(=O)N[C@@H](C)C(=O)N[C@@H](CC(C)C)C(=O)N[C@@H](CC(C)C)C(=O)O` [polyE-min3p1] (H-SEEEEELDQLLTQLIEALL-OH; N-terminus and C-terminus assumed), the “elicitation of hypersensitive response” value [2] was “elicited HR”, the “Effectiveness Covered (%)” value ([3]; 10 ug/ml spray) was 79* % and the “Effectiveness Uncovered (%)” value ([3]; 10 ug/ml spray) was 92* %.

In the case of `CC(C)C[C@H](NC(=O)[C@H](C)NC(=O)[C@H](CCC(=O)O)NC(=O)[C@H](CCC(=O)O)NC(=O)[C@H](CCC(=O)O)NC(=O)[C@H](CCC(=O)O)NC(=O)[C@H](CCC(=O)O)NC(=O)[C@@H](N)CO)C(=O)N[C@@H](CCC(=O)O)C(=O)N[C@@H](CCC(N)=O)C(=O)N[C@@H](CC(C)C)C(=O)N[C@@H](CC(C)C)C(=O)N[C@@H](CCC(=O)O)C(=O)N[C@@H](CC(=O)O)C(=O)N[C@@H](CC(C)C)C(=O)N[C@H](C(=O)N[C@@H](CCCCN)C(=O)N[C@@H](CC(C)C)C(=O)N[C@@H](CC(C)C)C(=O)N[C@@H](CCCCN)C(=O)O)C(C)C` [Peptide P14-30] (H-SEEEEEALEQLLEDLVKLLK-OH; N-terminus and C-terminus assumed), the “elicitation of hypersensitive response” value [2] was “elicited HR”, the “Effectiveness Covered (%)” value ([3]; 10 ug/ml spray) was 25% and the “Effectiveness Uncovered (%)” value ([3]; 10 ug/ml spray) was 74%.

For `CSCC[C@H](NC(=O)[C@H](CC(C)C)NC(=O)[C@H](C)NC(=O)[C@H](CCC(N)=O)NC(=O)[C@H](CCSC)NC(=O)[C@@H]1CCCN1C(=O)[C@H](CC(=O)O)NC(=O)[C@@H](N)CCC(N)=O)C(=O)N[C@@H](CCC(N)=O)C(=O)N[C@@H](CC(C)C)C(=O)N[C@@H](CC(C)C)C(=O)N[C@@H](CCC(=O)O)C(=O)N[C@@H](CC(=O)O)C(=O)N[C@@H](CC(C)C)C(=O)N[C@H](C(=O)N[C@@H](CCCCN)C(=O)N[C@@H](CC(C)C)C(=O)N[C@@H](CC(C)C)C(=O)N[C@@H](CCCCN)C(=O)O)C(C)C` [Peptide P14d] (H-QDPMQALMQLLEDLVKLLK-OH; N-terminus and C-terminus assumed), the “elicitation of hypersensitive response” value [2] was “causes HR in tobacco leaves”, the “Effectiveness Covered (%)” value ([3]; 5 ug/ml spray) was 96* % and the “Effectiveness Uncovered (%)” value ([3]; 5 ug/ml spray) was 93* %.

`CSCC[C@H](NC(=O)[C@H](CC(C)C)NC(=O)[C@H](C)NC(=O)[C@H](CCC(N)=O)NC(=O)[C@H](CCSC)NC(=O)[C@@H]1CCCN1C(=O)[C@H](CC(=O)O)NC(=O)[C@H](CCC(N)=O)NC(=O)[C@H](CC(N)=O)NC(=O)[C@H](CC(N)=O)NC(=O)[C@H](C)NC(=O)[C@H](CC(=O)O)NC(=O)[C@H](CC(=O)O)NC(=O)[C@@H](NC(=O)[C@H](CC(N)=O)NC(=O)CNC(=O)[C@@H](NC(=O)[C@H](CCCCN)NC(=O)[C@H](CC(N)=O)NC(=O)[C@H](C)NC(=O)[C@H](CO)NC(=O)[C@H](CCC(N)=O)NC(=O)[C@@H]1CCCN1C(=O)CNC(=O)[C@H](C)NC(=O)[C@@H](N)CCC(N)=O)[C@@H](C)O)C(C)C)C(=O)N[C@@H](CCC(N)=O)C(=O)N[C@@H](CC(C)C)C(=O)N[C@@H](CC(C)C)C(=O)N[C@@H](CCC(=O)O)C(=O)N[C@@H](CC(=O)O)C(=O)N[C@@H](CC(C)C)C(=O)N[C@H](C(=O)N[C@@H](CCCCN)C(=O)N[C@@H](CC(C)C)C(=O)N[C@@H](CC(C)C)C(=O)N[C@@H](CCCCN)C(=O)O)C(C)C` [Peptide P14c] (H-QAGPQSANKTGNVDDANNQDPMQALMQLLEDLVKLLK-OH; N-terminus and C-terminus assumed) was tested, and the “Root (%)” value ([5]; root growth index) was 14.4* % and the “Shoot (%)” value ([5]; shoot length) was 9.0* %.

For `CC[C@H](C)[C@H](NC(=O)[C@H](CCC(=O)O)NC(=O)[C@H](CCC(=O)O)NC(=O)[C@H](CCC(=O)O)NC(=O)[C@H](CCC(=O)O)NC(=O)[C@H](CCC(=O)O)NC(=O)[C@@H](N)CO)C(=O)N[C@@H](C)C(=O)N[C@@H](CCCCN)C(=O)N[C@@H](CC(C)C)C(=O)N[C@H](C(=O)N[C@@H](CO)C(=O)N[C@@H](C)C(=O)N[C@@H](CC(C)C)C(=O)N[C@H](C(=O)N[C@@H](CCC(=O)O)C(=O)N[C@@H](CO)C(=O)N[C@@H](CC(C)C)C(=O)N[C@@H](CC(C)C)C(=O)N[C@@H](CCC(=O)O)C(=O)O)[C@@H](C)CC)[C@@H](C)CC` [Peptide P15-59] (H-SEEEEEIAKLISALIESLLE-OH; N-terminus and C-terminus assumed), the “Root (%)” value ([4]; seed soak 0.2 μg/ml) was 7.6%, the “Shoot (%)” value ([4]; seed soak 0.2 μg/ml) was −8.6* % and the “elicitation of hypersensitive response” value [2] was “elicited HR”.

For `CC[C@H](C)[C@H](NC(=O)[C@H](CC(C)C)NC(=O)[C@H](CCC(N)=O)NC(=O)[C@H](CO)NC(=O)[C@H](CC(C)C)NC(=O)[C@H](CC(C)C)NC(=O)[C@H](CCC(N)=O)NC(=O)[C@H](CC(=O)O)NC(=O)[C@H](CC(C)C)NC(=O)[C@H](CCC(=O)O)NC(=O)[C@H](CCC(=O)O)NC(=O)[C@H](CCC(=O)O)NC(=O)[C@H](CCC(=O)O)NC(=O)[C@H](CCC(=O)O)NC(=O)[C@@H](N)CO)C(=O)N[C@@H](CCC(N)=O)C(=O)N[C@@H](C)C(=O)N[C@@H](CC(C)C)C(=O)N[C@@H](CC(C)C)C(=O)O` [polyE-min3p4] (H-SEEEEELDQLLSQLIQALL-OH; N-terminus and C-terminus assumed), the “elicitation of hypersensitive response” value [2] was “elicited HR”, the “Effectiveness Covered (%)” value ([3]; 10 ug/ml spray) was 86* % and the “Effectiveness Uncovered (%)” value ([3]; 10 ug/ml spray) was 88* %.
